For this test, the system named is OVCAR8. Description: cell count relative to DMSO vehicle (fold change); OVCAR8 is a high-grade serous ovarian cancer line and CX-5461 an RNA polymerase I inhibitor; higher = more surviving senescent cells (less killing). The following applies: senescence inducer: CX-5461 3 µM 48 h, then 6 d recovery (CX senescent), exposure time 24 h.

Structures are written as SMILES. Counter-ions that a name gives are not always drawn. ± gives the standard deviation of the averaged measurements. The list shows a part of the results.

For `CC1(C)C(=O)N([C@H]2CCc3c(O)cccc32)c2nc(Nc3cccc(CN4CCCC4)c3)ncc21`, the cell count was found to be 1.1 ± 0.072 (compound dose 1 µM) and 0.335 ± 0.023 (compound dose 5 µM).

Turning to `Cc1[nH]c2ccccc2c1CCNCc1ccc(/C=C/C(=O)NO)cc1` [Panobinostat (LBH589)], the cell count by setting is: (compound dose 1 µM) 0.626 ± 0.04; (compound dose 5 µM) 0.469 ± 0.08.

On to `COc1ccnc(C[S+]([O-])c2nc3cc(OC(F)F)ccc3[nH]2)c1OC` (stereo not drawn) [Pantoprazole (sodium hydrate)], for which the cell count by setting is: (compound dose 1 µM) 1 ± 0.11; (compound dose 5 µM) 1.1 ± 0.2.

Take `COc1ccnc(C[S+]([O-])c2nc3cc(OC(F)F)ccc3[nH]2)c1OC` (stereo not drawn) [Pantoprazole (sodium)]: the cell count reads like this: (compound dose 1 µM) 0.995 ± 0.047; (compound dose 5 µM) 1.02 ± 0.15.

Turning to `Nc1ccn([C@@H]2O[C@H](CO)[C@@H](O)[C@@H]2O)c(=O)n1` [Cytarabine], the cell count reads like this: (compound dose 1 µM) 1.07 ± 0.32; (compound dose 5 µM) 1.02 ± 0.43.

For the compound `COc1ccc(-c2coc3cc(O)ccc3c2=O)cc1O` [Calycosin], the cell count reads like this: (compound dose 1 µM) 1.17 ± 0.27; (compound dose 5 µM) 1.2 ± 0.41.

Regarding `CN(Cc1cnc2nc(N)nc(N)c2n1)c1ccc(C(=O)N[C@@H](CCC(=O)O)C(=O)O)cc1` [Methotrexate], the cell count reads like this: (compound dose 1 µM) 1.17 ± 0.21; (compound dose 5 µM) 1.11 ± 0.26.

On to `CN(Cc1cnc2nc(N)nc(N)c2n1)c1ccc(C(=O)N[C@@H](CCC(=O)O)C(=O)O)cc1` [Methotrexate (disodium)], for which the cell count is, setting by setting: (compound dose 1 µM) 1.08 ± 0.22; (compound dose 5 µM) 1.028 ± 0.0092.

As to `CCCC[C@@H](C=O)NC(=O)[C@H](CC(C)C)NC(=O)[C@H](CC(C)C)NC(C)=O`, the cell count runs as follows: (compound dose 1 µM) 1.12 ± 0.1; (compound dose 5 µM) 1.17 ± 0.045.

As for `Nc1nc(NC2CC2)c2ncn([C@H]3C=C[C@@H](CO)C3)c2n1` [Abacavir], the cell count runs as follows: (compound dose 1 µM) 0.971 ± 0.09; (compound dose 5 µM) 0.949 ± 0.069.

For the compound `Nc1nc(NC2CC2)c2ncn([C@H]3C=C[C@@H](CO)C3)c2n1`, the cell count is, setting by setting: (compound dose 1 µM) 1.13 ± 0.028; (compound dose 5 µM) 1.17 ± 0.076.

`COc1cc(C=CC(=O)O)cc(OC)c1O` came in with a cell count (compound dose 1 µM) of 1.07 ± 0.047 and a cell count (compound dose 5 µM) of 1.02 ± 0.1.

As to `COc1cc(C(C)=O)ccc1O` [Apocynin], the cell count reads like this: (compound dose 1 µM) 1.1 ± 0.17; (compound dose 5 µM) 1.08 ± 0.12.

`O=C(/C=C/c1ccc(O)c(O)c1)O[C@@H]1[C@H](O)C[C@@](O)(C(=O)O)C[C@H]1OC(=O)/C=C/c1ccc(O)c(O)c1` [4,5-Dicaffeoylquinic acid]: the cell count came to 1.2 ± 0.28 (compound dose 1 µM) and 1.15 ± 0.33 (compound dose 5 µM).

Turning to `COC(=O)c1ccc([C@H]2c3[nH]c4ccccc4c3C[C@H](C(=O)OC)N2C(=O)CCl)cc1`, the cell count is, setting by setting: (compound dose 1 µM) 0.025 ± 0.0042; (compound dose 5 µM) 0.0205 ± 0.005.

For `CCCCCCCCCCCCc1ccc(S(=O)(=O)Nc2nncs2)cc1`, the cell count stood at 1.1 ± 0.06 (compound dose 1 µM) and 1.12 ± 0.12 (compound dose 5 µM).

For `C[C@H]1[C@H](C)CC[C@]2(C(=O)O)CC[C@]3(C)C(=CC[C@@H]4[C@@]5(C)C[C@@H](O)[C@H](O)[C@@](C)(CO)[C@@H]5CC[C@]43C)[C@H]12` [Asiatic acid], the cell count is, setting by setting: (compound dose 1 µM) 1.04 ± 0.12; (compound dose 5 µM) 1.09 ± 0.17.

Take `Cc1ccc([N+](=O)[O-])cc1S(=O)(=O)N(C)/N=C/c1cnc2ccc(Br)cn12` [PIK-75 (hydrochloride)]: the cell count reads like this: (compound dose 1 µM) 0.924 ± 0.042; (compound dose 5 µM) 1.21 ± 0.14.

Turning to `COc1cc(-c2ccc(=O)[nH]n2)ccc1OC(F)F` [Zardaverine], the cell count by setting is: (compound dose 1 µM) 0.953 ± 0.42; (compound dose 5 µM) 1.04 ± 0.11.

In turn, `CCCCCCCc1ccc(CCc2cccc(O)c2C(=O)O)cc1` returned a cell count (compound dose 1 µM) of 1.2 ± 0.24 and a cell count (compound dose 5 µM) of 1.31 ± 0.093.

Consider `COc1cc(OC)c(/C=C/S(=O)(=O)Cc2ccc(OC)c(NCC(=O)O)c2)c(OC)c1` [Rigosertib (sodium)], for which the cell count was 1.17 ± 0.042 (compound dose 1 µM) and 1.32 ± 0.023 (compound dose 5 µM).

Turning to `CC(C)(C)S(=O)(=O)c1ccc2nccc(Nc3n[nH]c4ccc(F)cc34)c2c1`, the cell count is 1.12 ± 0.15 (compound dose 1 µM) and 1.16 ± 0.26 (compound dose 5 µM).

Consider `Nc1nc(OCc2ccccc2)c2nc[nH]c2n1` [O6-Benzylguanine], for which the cell count came to 1.1 ± 0.16 (compound dose 1 µM) and 1.09 ± 0.035 (compound dose 5 µM).

For `Cn1cc(-c2ccc3c(c2)CCN3C(=O)Cc2cccc(C(F)(F)F)c2)c2c(N)ncnc21`, the cell count came out at 0.957 ± 0.0014 (compound dose 1 µM) and 1.03 ± 0.011 (compound dose 5 µM).

On to `Oc1cccc(-c2nc(N3CCOCC3)c3oc4ncccc4c3n2)c1`, for which the cell count is, setting by setting: (compound dose 1 µM) 1.244 ± 0.0064; (compound dose 5 µM) 1.06 ± 0.05.

Consider `Cc1cc(C)c(S(=O)(=O)Nc2cccc(C(F)(F)F)c2)c(C)c1`, for which the cell count by setting is: (compound dose 1 µM) 1.08 ± 0.22; (compound dose 5 µM) 1.01 ± 0.11.

Turning to `Cc1ccc(Oc2ccnc3cc(-c4cnn(C5CCNCC5)c4)ccc23)cc1`, the cell count reads like this: (compound dose 1 µM) 0.964 ± 0.077; (compound dose 5 µM) 0.948 ± 0.076.

As to `CCN(CC)CCCCNc1ncc2cc(-c3cc(OC)cc(OC)c3)c(NC(=O)NC(C)(C)C)nc2n1`, the cell count reads like this: (compound dose 1 µM) 1.12 ± 0.31; (compound dose 5 µM) 1.2 ± 0.17.

On to `C/C=C/C/C=C/CCC(=O)[C@H]1O[C@H]1C(N)=O` [Cerulenin], for which the cell count is, setting by setting: (compound dose 1 µM) 1.09 ± 0.03; (compound dose 5 µM) 1.07 ± 0.068.

With `CC(C)S(=O)(=O)c1ccc2nccc(Nc3ccc4scnc4c3)c2c1`, the cell count is, setting by setting: (compound dose 1 µM) 1.1 ± 0.057; (compound dose 5 µM) 1.07 ± 0.028.

Consider `Oc1cc(O)c2c(c1)O[C@H](c1ccc(O)c(O)c1)[C@H](O)[C@H]2c1c(O)cc(O)c2c1O[C@H](c1ccc(O)c(O)c1)[C@H](O)[C@H]2c1c(O)cc(O)c2c1O[C@H](c1ccc(O)c(O)c1)[C@H](O)C2` [Procyanidin C1], for which the cell count worked out at 1.06 ± 0.2 (compound dose 1 µM) and 1.02 ± 0.19 (compound dose 5 µM).

For the compound `C[N+](C)(C)CCC(=O)c1ccc2ccccc2c1`, the cell count runs as follows: (compound dose 1 µM) 1.09 ± 0.31; (compound dose 5 µM) 1.12 ± 0.28.

In the case of `C[C@H](NC(=O)C(=O)Nc1ccccc1C(C)(C)C)C(=O)N[C@@H](CC(=O)O)C(=O)COc1c(F)c(F)cc(F)c1F` [Emricasan], the cell count (compound dose 1 µM) amounted to 1.06 ± 0.49 and the cell count (compound dose 5 µM) turned out to be 1.15 ± 0.35.

On to `CN(C)CCN1CCN(CCCN2c3ccccc3Sc3ccc(C(F)(F)F)cc32)CC1` [ZZW-115 (hydrochloride)], for which the cell count amounted to 1.17 ± 0.12 (compound dose 1 µM) and 1.14 ± 0.12 (compound dose 5 µM).

(Values after the supplement of paper PMC12462457.)
